Assay results reported in patent publication US12006294B2, “Therapeutic compounds” (REGENTS OF THE UNIVERSITY OF MINNESOTA, priority 2017, dated 2024).
The name of at least one read-out is uncertain.

How the values were obtained:
Hela Cells = assay: Cellular ER stress model (tunicamycin, WST-8 cell viability); conditions: % cell survival (compound)/% cell survival (tunicamycin)
mice = assay: Tail flick assay (analgesic potency); type: in vivo; conditions: 2 mg/kg subcutaneous

Structure (SMILES)	ERS (vs Tn) (Hela Cells)	Tail flick latency % MPE, Mean (mice; 15 min) [% MPE]	Tail flick latency % MPE, Mean (mice; 30 min) [% MPE]	Tail flick latency % MPE, Mean (mice; 45 min) [% MPE]	Tail flick latency % MPE, Mean (mice; 60 min) [% MPE]
N=C(N)NCCc1c(Cl)cccc1Cl [BC1-252-2, 1-(2,6-dichlorophenethyl)guanidine]	1.02				
Cl.NC(=O)N/N=C/c1c(Cl)cccc1Cl [BC1-262-1, (E)-2-(2,6-dichlorobenzylidene)hydrazinecarboxamide hydrochloride]	1.34				
N=C(N)Nc1c(Cl)cccc1Cl [BC1-256-2, 1-(2,6-dichlorophenyl)guanidine]	1.13				
N=C(N)N/N=C/c1c(O)cccc1Cl [BC2-59-1, (E)-2-(2-chloro-6-hydroxybenzylidene)hydrazinecarboximidamide acetate]	2.16				
CC(C1=NCCN1)c1c(Cl)cccc1Cl (stereo not drawn) [JM2-101-2, 2-(1-(2,6-dichlorophenyl)ethyl)-4,5-dihydro-1H-imidazole]		6.6	11.2	6.0	6.2
Clc1cccc(Cl)c1Cc1ncc[nH]1 [JM3-131-2, 2-(2,6-dichlorobenzyl)-1H-imidazole]		7.6	2.9	4.7	4.6
